The test system of experiment [1] is RAW-Dual. As to the kind of experiment: NF-kB SEAP reporter activity, fold change vs agonist alone; cytotoxicity flag (confluency mask): not cytotoxic; higher = enhanced NF-kB activity. The essentials: (§1)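 RAW-Dual macrophages (50,000 cells/well in DMEM, 384-well plates) received 50 nL of library stock by pin tool, then a PRR agonist 1 h later, and were kept at 37 °C, 5% CO2. After 20 hours, supernatant was read for IRF by QuantiLuc luminescence and for NF-κB by QuantiBlue absorbance at 620 nm. Reporter activity is fold change over agonist-alone wells. Cytotoxic wells had IncuCyte confluency below 70% of agonist controls in both mask sets.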

Experiment [2] relates to RAW-Dual. The experiment can be described thus: NF-kB SEAP reporter activity, fold change vs agonist alone; higher = enhanced NF-kB activity. In short, it runs like this:
as §1

Experiment [3] relates to RAW-Dual. The experiment can be described thus: NF-kB SEAP reporter activity, fold change vs agonist alone; cytotoxicity flag (confluency mask): cytotoxic (confluency <70% of control); higher = enhanced NF-kB activity. The essentials:
as §1

Where [4] appears, read: agonist: ODN 1826 (TLR9) 0.5 ug/mL.
Setting [5] is: agonist: Pam2CSK4 (TLR2/6) 0.1 ug/mL.
[6] abbreviates: agonist: Pam3CSK4 (TLR2/1) 0.1 ug/mL.
[7] abbreviates: library stock concentration (final ~1000-fold dilution): 10 mM, cytotoxicity flag (confluency mask): not cytotoxic, agonist: Imiquimod (TLR7) […].
Where [8] appears, read: library stock concentration (final ~1000-fold dilution): 10 mM, cytotoxicity flag (confluency mask): not cytotoxic, agonist: MPLA (TLR4) […].

The structures appear in SMILES notation. Whole data set: some 2,900 compounds, median “NF-kB SEAP reporter activity, fold change vs agonist alone” near 0.99, cut for the highest 2% near 2.6. The list shows a part of the results.

On to `Cn1c(=O)c2c(ncn2CC(=O)O)n(C)c1=O` (library stock concentration (final ~1000-fold dilution): 10 mM), for which the “NF-kB SEAP reporter activity” value was determined as 0.931 in the experiment on RAW-Dual [1] (agonist: LPS (TLR4) 0.1 ug/mL), 0.916 with RAW-Dual [1] (setting [4]), 1.11 in the experiment on RAW-Dual [1] (setting [5]) and 1.03 with RAW-Dual [1] (setting [6]).
For `Cn1c(=O)c2c(ncn2CC(=O)O)n(C)c1=O`, the “NF-kB SEAP reporter activity” value with RAW-Dual [2] (setting [7]) is 0.897; in the experiment on RAW-Dual [2] (setting [8]) it was 1.05.
For `CC1CC(=O)c2c(ccc3c2C(=O)c2cccc(O)c2C3=O)C1` (stereo not given) (library stock concentration (final ~1000-fold dilution): 10 mM), the “NF-kB SEAP reporter activity” value in the experiment on RAW-Dual [1] (agonist: LPS (TLR4) 0.1 ug/mL) amounted to 1.64; with RAW-Dual [1] (setting [4]), 1.14; in the experiment on RAW-Dual [1] (setting [5]), 1.09; in the experiment on RAW-Dual [1] (setting [6]), 0.991.
On to `CC1CC(=O)c2c(ccc3c2C(=O)c2cccc(O)c2C3=O)C1` (stereo not given), for which the results for the “NF-kB SEAP reporter activity” value in the experiment on RAW-Dual [2] (setting [7]) and with RAW-Dual [2] (setting [8]) were 1.02 and 1.26, respectively.
`CS(=O)(=O)c1cccc(CNc2nc(Nc3ccc4c(c3)CCC(=O)N4)ncc2C(F)(F)F)c1`: the entries for the “NF-kB SEAP reporter activity” value in the experiment on RAW-Dual [2] (setting [7]) and in the experiment on RAW-Dual [2] (setting [8]) were 1.72 and 1.35, respectively.
For the compound `CS(=O)(=O)c1cccc(CNc2nc(Nc3ccc4c(c3)CCC(=O)N4)ncc2C(F)(F)F)c1` (library stock concentration (final ~1000-fold dilution): 10 mM), the “NF-kB SEAP reporter activity” value in the experiment on RAW-Dual [1] (agonist: LPS (TLR4) 0.1 ug/mL) worked out at 0.902; with RAW-Dual [1] (setting [4]), 1.75; in the experiment on RAW-Dual [1] (setting [5]), 0.592; in the experiment on RAW-Dual [1] (setting [6]) it was 0.821.
As for `CC(C)(C)n1nc(-c2ccc(Cl)cc2)c2c(N)ncnc21` (library stock concentration (final ~1000-fold dilution): 10 mM), the “NF-kB SEAP reporter activity” value in the experiment with RAW-Dual [3] (agonist: LPS (TLR4) 0.1 ug/mL) is 0.837; with RAW-Dual [3] (setting [4]), 1.26; in the experiment on RAW-Dual [3] (setting [5]), 0.621; with RAW-Dual [3] (setting [6]) it was 0.59.
As for `CC(C)(C)n1nc(-c2ccc(Cl)cc2)c2c(N)ncnc21`, the “NF-kB SEAP reporter activity” value stood at 1.1 in the experiment on RAW-Dual [2] (library stock concentration (final ~1000-fold dilution): 10 mM, cytotoxicity flag (confluency mask): cytotoxic (confluency <70% of control), agonist: Imiquimod (TLR7) […]) and 0.972 with RAW-Dual [2] (library stock concentration (final ~1000-fold dilution): 10 mM, cytotoxicity flag (confluency mask): cytotoxic (confluency <70% of control), agonist: MPLA (TLR4) […]).
`CC1(C)CCC(CN2CCN(c3ccc(C(=O)NS(=O)(=O)c4ccc(NCC5CCOCC5)c([N+](=O)[O-])c4)c(Oc4cnc5[nH]ccc5c4)c3)CC2)=C(c2ccc(Cl)cc2)C1` (library stock concentration (final ~1000-fold dilution): 10 mM): the “NF-kB SEAP reporter activity” value in the experiment with RAW-Dual [1] (agonist: LPS (TLR4) 0.1 ug/mL) worked out at 1.64; in the experiment on RAW-Dual [1] (setting [4]), 0.581; in the experiment with RAW-Dual [1] (setting [5]), 0.562; in the experiment with RAW-Dual [1] (setting [6]), 0.523.
`CC1(C)CCC(CN2CCN(c3ccc(C(=O)NS(=O)(=O)c4ccc(NCC5CCOCC5)c([N+](=O)[O-])c4)c(Oc4cnc5[nH]ccc5c4)c3)CC2)=C(c2ccc(Cl)cc2)C1`: the “NF-kB SEAP reporter activity” value with RAW-Dual [2] (setting [7]) was 0.863; in the experiment with RAW-Dual [2] (setting [8]), 2.12.
As to `Nc1nc(N)c2nc(-c3cccc(O)c3)cnc2n1`, the “NF-kB SEAP reporter activity” value in the experiment with RAW-Dual [2] (library stock concentration (final ~1000-fold dilution): 2 mM, cytotoxicity flag (confluency mask): not cytotoxic, agonist: Imiquimod (TLR7) […]) is 0.878; with RAW-Dual [2] (library stock concentration (final ~1000-fold dilution): 2 mM, cytotoxicity flag (confluency mask): not cytotoxic, agonist: MPLA (TLR4) […]), 1.11.
On to `Nc1nc(N)c2nc(-c3cccc(O)c3)cnc2n1` (library stock concentration (final ~1000-fold dilution): 2 mM), for which the “NF-kB SEAP reporter activity” value in the experiment on RAW-Dual [1] (agonist: LPS (TLR4) 0.1 ug/mL) worked out at 1.19; in the experiment on RAW-Dual [1] (setting [4]), 0.976; in the experiment with RAW-Dual [1] (setting [5]) it was 0.932; in the experiment on RAW-Dual [1] (setting [6]), 0.954.
Turning to `COc1ccccc1N1CCN(CC(O)COc2cccc3ccccc23)CC1` (stereo not given), the “NF-kB SEAP reporter activity” value in the experiment on RAW-Dual [2] (setting [7]) came out at 0.988; in the experiment on RAW-Dual [2] (setting [8]), 0.772.
For the compound `COc1ccccc1N1CCN(CC(O)COc2cccc3ccccc23)CC1` (stereo not given) (library stock concentration (final ~1000-fold dilution): 10 mM), the “NF-kB SEAP reporter activity” value with RAW-Dual [1] (agonist: LPS (TLR4) 0.1 ug/mL) was determined as 0.954; in the experiment on RAW-Dual [1] (setting [4]), 0.897; in the experiment on RAW-Dual [1] (setting [5]) it was 0.731; in the experiment with RAW-Dual [1] (setting [6]) it was 0.867.
Turning to `Cc1ncc(Cl)cc1NCc1ccc(C(=O)NC(CC2CCCC2)C(=O)NC2CC2)s1` (stereo not given), the “NF-kB SEAP reporter activity” value in the experiment on RAW-Dual [2] (setting [7]) came out at 0.865; with RAW-Dual [2] (setting [8]) it was 0.987.
For `Cc1ncc(Cl)cc1NCc1ccc(C(=O)NC(CC2CCCC2)C(=O)NC2CC2)s1` (stereo not given) (library stock concentration (final ~1000-fold dilution): 10 mM), the “NF-kB SEAP reporter activity” value in the experiment on RAW-Dual [1] (agonist: LPS (TLR4) 0.1 ug/mL) amounted to 0.894; in the experiment with RAW-Dual [1] (setting [4]), 0.742; with RAW-Dual [1] (setting [5]) it was 0.85; with RAW-Dual [1] (setting [6]), 0.698.
As for `CC(C)(C)C(=O)OCOP(=O)(COCCn1cnc2c(N)ncnc21)OCOC(=O)C(C)(C)C` (library stock concentration (final ~1000-fold dilution): 10 mM), the “NF-kB SEAP reporter activity” value in the experiment with RAW-Dual [1] (agonist: LPS (TLR4) 0.1 ug/mL) was found to be 1.63; in the experiment with RAW-Dual [1] (setting [4]), 1.69; with RAW-Dual [1] (setting [5]), 0.825; in the experiment on RAW-Dual [1] (setting [6]) it was 1.35.
For `CC(C)(C)C(=O)OCOP(=O)(COCCn1cnc2c(N)ncnc21)OCOC(=O)C(C)(C)C`, the “NF-kB SEAP reporter activity” value in the experiment on RAW-Dual [2] (setting [7]) came to 1.81; with RAW-Dual [2] (setting [8]), 1.56.
Take `Cl.O=C1NCC2(CCN(CCc3ccccc3)CC2)O1` (library stock concentration (final ~1000-fold dilution): 10 mM): the “NF-kB SEAP reporter activity” value with RAW-Dual [1] (agonist: LPS (TLR4) 0.1 ug/mL) was 2.09; in the experiment on RAW-Dual [1] (setting [4]) it was 1.35; with RAW-Dual [1] (setting [5]) it was 1.6; in the experiment on RAW-Dual [1] (setting [6]) it was 1.69.
Turning to `Cl.O=C1NCC2(CCN(CCc3ccccc3)CC2)O1`, the “NF-kB SEAP reporter activity” value worked out at 1.22 in the experiment with RAW-Dual [2] (setting [7]) and 1.15 with RAW-Dual [2] (setting [8]).
Taken in the same sequence, the figures for `COc1cc(-c2cc(-c3ccc(Cl)cc3)nc(=O)[nH]2)ccc1O` were 1.09 and 1.15.
Regarding `COc1cc(-c2cc(-c3ccc(Cl)cc3)nc(=O)[nH]2)ccc1O` (library stock concentration (final ~1000-fold dilution): 10 mM), the “NF-kB SEAP reporter activity” value in the experiment on RAW-Dual [1] (agonist: LPS (TLR4) 0.1 ug/mL) amounted to 1.6; in the experiment on RAW-Dual [1] (setting [4]), 0.991; in the experiment on RAW-Dual [1] (setting [5]), 1.22; in the experiment with RAW-Dual [1] (setting [6]) it was 1.39.
Taken in the same sequence, the figures for `COc1ccc2[nH]c(S(=O)Cc3ncc(C)c(OC)c3C)nc2c1` (stereo not given) (library stock concentration (final ~1000-fold dilution): 10 mM) were 1.29, 0.88, 0.95 and 0.971.
Take `COc1ccc2[nH]c(S(=O)Cc3ncc(C)c(OC)c3C)nc2c1` (stereo not given): the “NF-kB SEAP reporter activity” value came to 0.984 with RAW-Dual [2] (setting [7]) and 0.95 with RAW-Dual [2] (setting [8]).
For the compound `O=c1ccc2ccc(O)c(O)c2o1` (library stock concentration (final ~1000-fold dilution): 10 mM), the “NF-kB SEAP reporter activity” value was found to be 0.857 in the experiment with RAW-Dual [1] (agonist: LPS (TLR4) 0.1 ug/mL), 0.815 in the experiment with RAW-Dual [1] (setting [4]), 0.815 in the experiment on RAW-Dual [1] (setting [5]) and 0.865 in the experiment on RAW-Dual [1] (setting [6]).
As for `O=c1ccc2ccc(O)c(O)c2o1`, the figures for the “NF-kB SEAP reporter activity” value in the experiment on RAW-Dual [2] (setting [7]) and in the experiment with RAW-Dual [2] (setting [8]) were 0.848 and 0.866, respectively.
`NC1=NC2(c3cc(NC(=O)c4ccc(F)cn4)ccc3F)COCC2CS1` (stereo not given): the results for the “NF-kB SEAP reporter activity” value with RAW-Dual [2] (setting [7]) and with RAW-Dual [2] (setting [8]) were 0.813 and 1, respectively.

The values are drawn from the supplement of paper PMC10037445.
